# According to PMC4336329 (PLoS ONE, 2015):
# About 2,200 (0.71%) of roughly 310,000 compounds showed an effect of 50% or more. Effects have a minus sign here. The list shows a part of the results.
# Molecular target: human ether-à-go-go-related gene (hERG) potassium channel (human, UniProt Q12809)
# Assay: primary screen, population patch clamp on CHO cells stably expressing hERG
# Sequence of human ether-à-go-go-related gene (hERG) potassium channel (Q12809 whole entry, looked up): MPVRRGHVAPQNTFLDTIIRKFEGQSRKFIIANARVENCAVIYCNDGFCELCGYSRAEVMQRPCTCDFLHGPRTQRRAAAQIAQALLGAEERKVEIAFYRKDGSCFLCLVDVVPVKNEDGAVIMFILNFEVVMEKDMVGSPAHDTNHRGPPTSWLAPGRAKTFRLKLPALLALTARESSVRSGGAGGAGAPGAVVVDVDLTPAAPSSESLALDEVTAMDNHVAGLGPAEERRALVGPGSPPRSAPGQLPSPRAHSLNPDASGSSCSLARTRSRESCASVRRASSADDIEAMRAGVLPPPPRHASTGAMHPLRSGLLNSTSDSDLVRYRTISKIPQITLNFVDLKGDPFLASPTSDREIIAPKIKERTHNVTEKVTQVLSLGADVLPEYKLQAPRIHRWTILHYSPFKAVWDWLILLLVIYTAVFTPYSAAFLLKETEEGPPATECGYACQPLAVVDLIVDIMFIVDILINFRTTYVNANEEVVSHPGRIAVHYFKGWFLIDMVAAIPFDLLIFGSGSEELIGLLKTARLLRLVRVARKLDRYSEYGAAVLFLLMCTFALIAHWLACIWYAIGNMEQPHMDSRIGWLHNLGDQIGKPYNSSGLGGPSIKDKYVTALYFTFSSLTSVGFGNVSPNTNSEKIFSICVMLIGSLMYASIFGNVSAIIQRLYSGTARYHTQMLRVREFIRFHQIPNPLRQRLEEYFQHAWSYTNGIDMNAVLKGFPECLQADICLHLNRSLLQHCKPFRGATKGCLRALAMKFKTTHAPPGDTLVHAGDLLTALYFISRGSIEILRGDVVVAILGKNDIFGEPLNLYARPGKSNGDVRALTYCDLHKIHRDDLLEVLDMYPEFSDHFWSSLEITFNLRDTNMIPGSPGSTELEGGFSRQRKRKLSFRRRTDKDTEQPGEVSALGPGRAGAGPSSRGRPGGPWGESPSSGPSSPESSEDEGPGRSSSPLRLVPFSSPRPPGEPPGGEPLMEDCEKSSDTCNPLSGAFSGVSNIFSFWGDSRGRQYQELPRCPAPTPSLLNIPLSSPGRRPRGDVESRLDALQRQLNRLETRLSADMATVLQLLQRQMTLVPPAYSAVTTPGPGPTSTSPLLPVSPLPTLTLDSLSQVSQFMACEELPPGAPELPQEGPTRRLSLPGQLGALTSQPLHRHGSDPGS
row,Compound,"hERG current change (%, negative = inhibition) at 1uM"
1,COc1ccc(OCc2cc(C(=O)N3CCCN(C(C)=O)CC3)no2)c(Cl)c1,3.98%
2,CCOC(=O)CS(=O)(=O)c1ccc(O)cc1,26.2%
3,O=C(NCc1ccccc1)c1cc2ccccc2o1,8.22%
4,COC(=O)c1ccc(/C=N/NC(=O)C(=O)N2CCCCCC2)cc1,12.6%
5,COc1ccccc1Nc1cc(C(=O)NCc2cccnc2)c2ccccc2n1,1.29%
6,O=C(Nc1nc(-c2cccs2)cs1)c1ccc([N+](=O)[O-])o1,12.1%
7,O=C(NC1CCSc2ccccc21)c1ccc(F)cc1 (centres unmarked),11.4%
8,NS(=O)(=O)c1cccc(NC(=S)NC(=O)c2cccc([N+](=O)[O-])c2)c1,-1.67%
9,Cc1ccc(Cc2nnc(SCC(=O)Nc3ccccc3C)[nH]c2=O)cc1,2.01%
10,O=C(NCc1ccc2c(c1)OCO2)c1c(F)c(F)c(F)c(F)c1F,12.5%
11,Cc1nc(C(=O)NC2CCOCC2)sc1C1(C)CC(c2ccccc2)=NO1 (centres unmarked),-7.55%
12,CC1C(C#N)=C(SCC(N)=O)NC2=C1C(=O)CC(C)(C)C2 (centres unmarked),17.9%
13,O=[N+]([O-])c1ccc(CN2CCOCCOCCOCC2)cc1,-20.5%
14,Cc1noc(C)c1C(=O)NNc1ccc(C(C)C)cc1,8.76%
15,Cc1nn(C)cc1C(=O)Nc1ccc2c(c1)OCCO2,2.96%
16,COc1ccc(OCC(=O)NC(=S)N2CCCc3ccccc32)cc1,8.47%
17,Cc1nn(Cc2cccc(Oc3ccccc3)c2)c(C)c1NC(=O)NC12CC3CC(CC(C3)C1)C2,10.6%
18,CCOC(=O)c1cnc2c(Cl)cccc2c1NCCN1CCOCC1,-0.725%
19,O=c1c(Cl)c(NCc2ccc(F)cc2)cnn1C12CC3CC(CC(C3)C1)C2,1.33%

row,Compound,"hERG current change (%, negative = inhibition) at 1uM"
1,Cc1ccc(NS(=O)(=O)c2c(C)[nH]c(C)c2C(=O)N2CCCCC2)cc1Cl,13.7%
2,CN(C)S(=O)(=O)c1ccc(Cl)c(NC(=O)COC(=O)CC(NC(N)=O)c2ccc(Cl)cc2)c1 (centres unmarked),10.4%
3,O=C(c1ccc(Br)s1)N1CCN(C/C=C/c2ccccc2)CC1,1.78%
4,Cc1cccc(NS(=O)(=O)c2ccc(NC(=O)CN(c3cc([N+](=O)[O-])ccc3C)S(C)(=O)=O)cc2)c1,12.4%
5,CCc1nc2scc(-c3ccccc3)c2c(=O)n1N,2.81%
6,N#C/C(=N\Nc1ccccc1)C(=N)N1CCCCCC1,-4.82%
7,CSc1ccc(C(=O)C2CCCN(C(=O)c3ccsc3)C2)cc1 (centres unmarked),-2.61%
8,O=C(Nc1cccn(Cc2ccc(F)cc2)c1=O)NC1CCCCC1,4.18%
9,COc1ccc(-c2cc(C(=O)Nc3ccc(OC)c(OC)c3)no2)cc1,11%
10,CCN1C(=O)[C@H]2[C@@H](c3ccc(-c4ccc(F)cc4)c(OC)c3)N[C@@](C)(C(=O)OC)[C@H]2C1=O.O=C(O)C(F)(F)F,-1.57%
11,O=C(C1CCCO1)N1CCN(c2ncccn2)CC1 (centres unmarked),-1.41%
12,CN1C(=O)C(CC(=O)Nc2ccc3c(c2)Cc2ccccc2-3)N(C)C1=O (centres unmarked),2.49%
13,CCCCn1nc(C(=O)Nc2cc(C(F)(F)F)ccc2N2CCOCC2)ccc1=O,-39.3%
14,Cc1cc(F)ccc1NCc1ccc([N+](=O)[O-])cc1,7.53%
15,O=C(OCC(=O)N1CCOCC1)c1cccc(S(=O)(=O)Nc2ccc(F)cc2)c1,8.13%
16,COc1ccc(N2CCN(C(=O)CN3C(=O)COc4ccccc43)CC2)cc1,11%
17,Cc1[nH]c(C)c(S(=O)(=O)N2CCCCC2)c1C(=O)N1CCCCC1,2.76%
18,CC(=O)c1cccc(NC(=S)N2CCN(S(=O)(=O)c3ccccc3)CC2)c1,15.9%
19,COc1ccc(NC(=O)c2cccs2)cc1,18.8%

row,Compound,"hERG current change (%, negative = inhibition) at 1uM"
1,Cc1cccc(Oc2ccc(S(=O)(=O)N3CCCCC3)cc2N)c1,14.7%
2,Cc1c(Cl)ccc2c(C(=O)NCCCn3nccc3C)cc(-c3ccccn3)nc12,9.06%
3,O=C(Nc1ccc(Cl)cn1)c1cccnc1,3.59%
4,CN=C1C([N+](=O)[O-])=CC=C2C1=NC1(CCCCC1)N2O,7.62%
5,O=C(C1CN(C(=O)c2cc3cc(Cl)ccc3o2)c2ccccc2O1)N1CCCCC1 (centres unmarked),12.3%
6,COc1ccc(OCC(=O)OCC(=O)N2C(C)CCCC2C)cc1 (centres unmarked),2.56%
7,CC(NC(=O)Nc1ccccc1Cl)c1ccc2c(c1)OCO2 (centres unmarked),9.76%
8,Cc1sc2ncnc(N3CCC(C(=O)N(C)CC(=O)Nc4ccc(Cl)c(C(F)(F)F)c4)CC3)c2c1C,12.2%
9,O=C1c2ccccc2C(=O)c2c1oc(C(F)(F)F)c2C(=O)c1ccccc1,11.3%
10,COc1cc(C(C)=O)ccc1OCC(O)CN1CCN(c2ccc(C)c(C)c2)CC1 (centres unmarked),7.9%
11,CCS(=O)(=O)N1N=C(c2ccccc2)CC1c1ccc2nccnc2c1 (centres unmarked),9.12%
12,CSc1nc2ccc(NS(=O)(=O)c3ccc(CNC(C)=O)cc3)cc2s1,6.06%
13,COc1cc2cccc(OC)c(=O)c2c(O)c1OC,2.94%
14,CCCCNC(=O)c1cc(C)no1,9.51%
15,Oc1ccccc1C1Nc2cccc3cccc(c23)N1,8.29%
16,Cc1ccc(-n2nc3c(=O)n(CCCC(=O)NCCc4ccccc4)nc(C)c3c2C)cc1,16%
17,CCO[C@@H]1OC(C(=O)N2CCN(Cc3ccc4c(c3)OCO4)CC2)=C[C@H](C2CC2)[C@H]1CCCO,14.2%
18,CN(C)Cc1nc2ccccc2c(=O)n1CC#N,7.68%
